# Measurements from the supplement of paper PMC8728848.
# This is one part of the list.
# B1: Gal 4 (Homo sapiens), Q8K419 (protein)
# chain: MAYVPAPGYQPTYNPTLPYKRPIPGGLSVGMSVYIQGMAKENMRRFHVNFAVGQDDGADVAFHFNPRFDGWDKVVFNTMQSGQWGKEEKKKSMPFQKGKHFELVFMVMPEHYKVVVNGNSFYEYGHRLPVQMVTHLQVDGDLELQSINFLGGQPAAAPYPGAMTIPAYPAGSPGYNPPQMNTLPVMTGPPVFNPRVPYVGALQGGLTVRRTIIIKGYVLPTARNFVINFKVGSSGDIALHLNPRIGDSVVRNSFMNGSWGAEERKVAYNPFGPGQFFDLSIRCGMDRFKVFANGQHLFDFSHRFQAFQMVDTLEINGDITLSYVQI
# Columns and labels:
# Test in all cases: glycan array binding signal (z-score within array); higher = stronger binding
# Conditions in all cases: glycan notation: IUPAC condensed, linker removed
# [1] = target: Fuc(a1-2)[GalNAc(a1-3)]Gal(b1-4)GlcNAc(b1-3)Gal(b1-4)GlcNAc
# Method in brief: (§1)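 Columns mapping to the same glycan were averaged after glycan names were converted to IUPAC-condensed notation. The data come from 3228 arrays in the Consortium for Functional Glycomics database, limited to those with an available protein sequence. Binding is reported as a within-array Z-score averaged across arrays of one protein sequence and across linkers.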
# [2] = target: Fuc(a1-2)[GalNAc(a1-3)]Gal(b1-4)GlcNAc(b1-3)Gal(b1-4)GlcNAc(b1-3)Gal(b1-4)GlcNAc
# Method in brief: as §1
# [3] = target: Fuc(a1-2)[GalNAc(a1-3)]Gal(b1-4)GlcNAc(b1-3)GalNAc
# Method in brief: as §1
# [4] = target: Fuc(a1-2)[GalNAc(a1-3)]Gal(b1-4)[Fuc(a1-3)]GlcNAc
# Method in brief: as §1
# [5] = target: Fuc(a1-2)[GalNAc(a1-3)]Gal(b1-4)[Fuc(a1-3)]GlcNAc(b1-3)GalNAc
# Method in brief: as §1
# [6] = target: Fuc(a1-2)[GalNAc(a1-4)]Gal(b1-4)GlcNAc
# Method in brief: as §1
# [7] = target: Fuc(a1-2)[GalNAc(b1-3)]Gal
# Method in brief: as §1
# Fuc(a1-3)GlcNAc = target: Fuc(a1-3)GlcNAc
# Method in brief: as §1
# [8] = target: Fuc(a1-3)[Gal(b1-4)]Glc6S
# Method in brief: as §1
# [9] = target: Fuc(a1-3)[Gal(b1-4)]GlcNAc
# Method in brief: as §1
# [10] = target: Fuc(a1-3)[Gal(b1-4)]GlcNAc(b1-2)Man
# Method in brief: as §1
# [11] = target: Fuc(a1-3)[Gal(b1-4)]GlcNAc(b1-2)Man(a1-3)[Fuc(a1-3)[Gal(b1-4)]GlcNAc(b1-2)Man(a1-6)]Man(b1-4)GlcNAc(b1-4)GlcNAc
# Method in brief: as §1
# [12] = target: Fuc(a1-3)[Gal(b1-4)]GlcNAc(b1-2)Man(a1-3)[Fuc(a1-3)[Gal(b1-4)]GlcNAc(b1-2)Man(a1-6)]Man(b1-4)GlcNAc(b1-4)[Fuc(a1-6)]GlcNAc
# Method in brief: as §1
# [13] = target: Fuc(a1-3)[Gal(b1-4)]GlcNAc(b1-3)Gal(b1-3)[Fuc(a1-4)]GlcNAc
# Method in brief: as §1
# [14] = target: Fuc(a1-3)[Gal(b1-4)]GlcNAc(b1-3)GalNAc
# Method in brief: as §1
# [15] = target: Fuc(a1-3)[Gal(b1-4)]GlcNAc(b1-4)Gal(b1-4)[Fuc(a1-3)]GlcNAc
# Method in brief: as §1
# [16] = target: Fuc(a1-3)[Gal(b1-4)]GlcNAc(b1-4)Gal(b1-4)[Fuc(a1-3)]GlcNAc(b1-4)Gal(b1-4)[Fuc(a1-3)]GlcNAc
# Method in brief: as §1
# [17] = target: Fuc(a1-3)[Gal(b1-4)]GlcNAc(b1-6)GalNAc
# Method in brief: as §1
# [18] = target: Fuc(a1-3)[Gal(b1-4)]GlcNAc(b1-6)[Gal(b1-3)GlcNAc(b1-3)]Gal(b1-4)Glc
# Method in brief: as §1
# [19] = target: Fuc(a1-3)[Gal(b1-4)]GlcNAc(b1-6)[Neu5Ac(a2-3)Gal(b1-3)]GalNAc
# Method in brief: as §1
# [20] = target: Fuc(a1-3)[Gal(b1-4)]GlcNAc6S
# Method in brief: as §1
# [21] = target: Fuc(a1-3)[Gal3S(b1-4)]GlcNAc
# Method in brief: as §1
# [22] = target: Fuc(a1-3)[Gal3S(b1-4)]GlcNAc6S
# Method in brief: as §1
# [23] = target: Fuc(a1-3)[GalNAc(b1-4)]GlcNAc
# Method in brief: as §1
# [24] = target: Fuc(a1-3)[GalNAc(b1-4)]GlcNAc6S
# Method in brief: as §1
# [25] = target: Fuc(a1-3)[GalNAc3S(b1-4)]GlcNAc
# Method in brief: as §1
# Fuc(a1-4)GlcNAc = target: Fuc(a1-4)GlcNAc
# Method in brief: as §1
# Fuc(b1-3)GlcNAc = target: Fuc(b1-3)GlcNAc
# Method in brief: as §1
# Gal(a1-2)Gal = target: Gal(a1-2)Gal
# Method in brief: as §1
# Gal(a1-3)Gal = target: Gal(a1-3)Gal
# Method in brief: as §1
# Gal(a1-3)Gal(b1-3)GlcNAc = target: Gal(a1-3)Gal(b1-3)GlcNAc
# Method in brief: as §1
# [26] = target: Gal(a1-3)Gal(b1-3)GlcNAc(b1-2)Man(a1-3)[Gal(a1-3)Gal(b1-3)GlcNAc(b1-2)Man(a1-6)]Man(b1-4)GlcNAc(b1-4)GlcNAc
# Method in brief: as §1
# [27] = target: Gal(a1-3)Gal(b1-3)GlcNAc(b1-3)GalNAc
# Method in brief: as §1
# [28] = target: Gal(a1-3)Gal(b1-3)GlcNAc(b1-6)GalNAc
# Method in brief: as §1
# [29] = target: Gal(a1-3)Gal(b1-3)[Fuc(a1-4)]GlcNAc(b1-2)Man(a1-3)[Gal(a1-3)Gal(b1-3)[Fuc(a1-4)]GlcNAc(b1-2)Man(a1-6)]Man(b1-4)GlcNAc(b1-4)GlcNAc
# Method in brief: as §1
# Gal(a1-3)Gal(b1-4)Glc = target: Gal(a1-3)Gal(b1-4)Glc
# Method in brief: as §1
# Gal(a1-3)Gal(b1-4)GlcNAc = target: Gal(a1-3)Gal(b1-4)GlcNAc
# Method in brief: as §1
binder,measurement,setting,value
B1,glycan array binding signal (z-score),[1],1.31
same,glycan array binding signal (z-score),[2],0.768
same,glycan array binding signal (z-score),[3],-0.089
same,glycan array binding signal (z-score),[4],-0.193
same,glycan array binding signal (z-score),[5],-0.19
same,glycan array binding signal (z-score),[6],-0.201
same,glycan array binding signal (z-score),[7],-0.007
same,glycan array binding signal (z-score),Fuc(a1-3)GlcNAc,-0.201
same,glycan array binding signal (z-score),[8],-0.189
same,glycan array binding signal (z-score),[9],-0.2
same,glycan array binding signal (z-score),[10],-0.212
same,glycan array binding signal (z-score),[11],-0.199
same,glycan array binding signal (z-score),[12],-0.186
same,glycan array binding signal (z-score),[13],-0.18
same,glycan array binding signal (z-score),[14],-0.196
same,glycan array binding signal (z-score),[15],-0.202
same,glycan array binding signal (z-score),[16],-0.202
same,glycan array binding signal (z-score),[17],-0.199
same,glycan array binding signal (z-score),[18],-0.193
same,glycan array binding signal (z-score),[19],-0.192
same,glycan array binding signal (z-score),[20],-0.179
same,glycan array binding signal (z-score),[21],-0.199
same,glycan array binding signal (z-score),[22],-0.175
same,glycan array binding signal (z-score),[23],-0.197
same,glycan array binding signal (z-score),[24],-0.206
same,glycan array binding signal (z-score),[25],-0.199
same,glycan array binding signal (z-score),Fuc(a1-4)GlcNAc,-0.201
same,glycan array binding signal (z-score),Fuc(b1-3)GlcNAc,-0.195
same,glycan array binding signal (z-score),Gal(a1-2)Gal,-0.202
same,glycan array binding signal (z-score),Gal(a1-3)Gal,-0.204
same,glycan array binding signal (z-score),Gal(a1-3)Gal(b1-3)GlcNAc,0.184
same,glycan array binding signal (z-score),[26],-0.192
same,glycan array binding signal (z-score),[27],-0.071
same,glycan array binding signal (z-score),[28],-0.031
same,glycan array binding signal (z-score),[29],-0.192
same,glycan array binding signal (z-score),Gal(a1-3)Gal(b1-4)Glc,0.543
same,glycan array binding signal (z-score),Gal(a1-3)Gal(b1-4)GlcNAc,0.25
